Measured values from PubChem BioAssay AID902 (National Center for Advancing Translational Sciences (NCATS), 2007).
Among all 130,000 compounds or so, about 1,900 (1.5%) were called active. The shares of active, inactive and inconclusive entries below differ from those in the screen. Calls come from the whole dose curve; as a rule, active = well fitted cell-killing curve with a large enough effect; inconclusive = small, poorly fitted or top-dose-only effect; inactive = no such curve, though single readings can be large or run the other way. Potencies beside an inconclusive call are fits to weak or partial responses and may not hold up.
% is set by controls: 0 for no effect and ±100 for the full control effect; potency is the fitted concentration of half-maximal effect; tags give direction and shape of the fitted curve.

Experiment: qHTS Screen for Compounds that Selectively Target Cancer Cells with p53 Mutations: Cytotoxicity of p53ts Cells at the Nonpermissive Temperature; note: nearly all actives have a fitted effect of over 55% in size
Details: H1299-p53A138V viability at 39C, ATP luminescence, 24 h; activity change, negative = cell killing: at 46.1 µM (top of the series)
For `CCC/C=C(\CCC)C(NP(=O)(c1ccccc1)c1ccccc1)c1ccccc1` (stereo not drawn), the Potency was inconclusive: 31.6 µM [cytotoxic, single point]. For `Cc1noc(C(=O)Nc2sc3c(c2C#N)CCC3)c1Cl`, the Potency was inconclusive: 12.6 µM [cytotoxic, partial curve]. For `Cc1ccccc1-n1c(/C=C/c2ccc(O)cc2)nc2ccccc2c1=O`, the Potency was inconclusive: 31.6 µM [cytotoxic, single point]. In the case of `O=C(O)c1ccccc1-c1c2cc(Br)c(=O)cc-2oc2[c]([Hg])c(O)c(Br)cc12`, the Potency is reported as inconclusive: 12.6 µM [cytotoxic, partial curve]. With `Cc1ccc2nc3c(cc2c1)CC1(C(=O)N(C)C(=O)N(C)C1=O)C1CCCCN31` (stereo not drawn) the Potency was inconclusive: 12.6 µM [cytotoxic, single point]. With `c1coc(CNc2ncnc3nc[nH]c23)c1` the Potency was inconclusive: 12.6 µM [cytotoxic, single point]. For `S=C(S)N1CCCC1`, the Potency was inconclusive: 31.6 µM [cytotoxic, single point]. For `CCC(C)C(=O)c1c(O)c(C)c2oc3c(C)c(O)c(C(=O)C(C)CC)c(O)c3c2c1O` (stereo not drawn), the Potency was active: 12.6 µM. In the case of `COc1ccc(C(=O)Oc2c(CN3CCOCC3)cc(Cl)c3cccnc23)cc1OC`, the Potency is reported as inconclusive: 12.6 µM [cytotoxic, partial curve]. With `CN(C(=O)Cc1ccc(Cl)c(Cl)c1)[C@H](CN1CCCC1)c1ccccc1` the Potency was inconclusive: 15.8 µM [cytotoxic, partial curve]. For `CNCCc1ccc(O)c(O)c1`, the Potency was active: 20 µM. For `COc1ccc(OCCn2c(NC(=O)c3ccc(OC)cc3)nc3ccccc32)cc1`, the Potency was inconclusive: 10 µM [cytotoxic, partial curve]. In the case of `Oc1cc2c(cc1O)[C@H]1c3ccccc3CN[C@@H]1CC2`, the Potency is reported as inconclusive: 31.6 µM [cytotoxic, single point]. For `COC1C(O)C(C)O[C@@H](OC2CC[C@@]3(C)C4CC[C@]5(C)C(C6=CC(=O)OC6)CC[C@@]5(O)C4CC[C@@H]3C2)C1O` (stereo partly drawn), the Potency was inconclusive: 0.0316 µM [cytotoxic, full curve]. With `Brc1ccc(Oc2cc(Br)c(Br)cc2Br)c(Br)c1` the Potency was “inactive”. With `COc1cc2c(cc1OC)-c1c(O)c(OC)cc3c1[C@H](C2)N(C)CC3` the Potency was inconclusive: 12.6 µM [cytotoxic, partial curve]. With `c1cncc(CNc2cc(-c3ccc4c(c3)OCO4)ncn2)c1` the Potency was inconclusive: 20 µM [cytotoxic, partial curve, poor fit]. With `O=C(c1sc2ccccc2c1Cl)N1CCC2(CC1)OCCO2` the “activity change, negative = cell killing” value was inactive: 6.23%.
